Biological target: the molecule itself
Test: single molecule analysis

| Protein | stoichiometry N |
| --- | --- |
| EGFP-S1C (wt) (domain or fragment) not shown | 2 |
| EGFP-S1C R429C (domain or fragment) not shown | 2 |
| EGFP-S1C F394H (domain or fragment) not shown | 2 |

Reference: PMC5519287 (Cell reports, 2017)
